The source of these data is US20030113828A1 (published 2003).

The target of this test is T1, Syk protein tyrosine kinase (wild type) (UniProt P43405).
T1 construct: the printed residue numbers (K402, R195, R42, Tyr348) fit it; also called wild-type Syk; Syk kinase
The experiment in a line: co-immunoprecipitation from fibrinogen-adherent CHO cells.

B1: integrin αIIbβ3(759X) (receptor)
chain 1: not shown
chain 2: GPNICTTRGVSSCQQCLAVSPMCAWCSDEALPLGSPRCDLKENLLKDNCAPESIEFPVSEARVLEDRPLSDKGSGDSSQVTQVSPQRIALRLRPDDSKNFSIQVRQVEDYPVDIYYLMDLSYSMKDDLWSIQNLGTKLATQMRKLTSNLRIGFGAFVDKPVSPYMYISPPEALENPCYDMKTTCLPMFGYKHVLTLTDQVTRFNEEVKKQSVSRNRDAPEGGFDAIMQATVCDEKIGWRNDASHLLVFTTDAKTHIALDGRLAGIVQPNDGQCHVGSDNHYSASTTMDYPSLGLMTEKLSQKNINLIFAVTENVVNLYQNYSELIPGTTVGVLSMDSSNVLQLIVDAYGKIRSKVELEVRDLPEELSLSFNATCLNNEVIPGLKSCMGLKIGDTVSFSIEAKVRGCPQEKEKSFTIKPVGFKDSLIVQVTFDCDCACQAQAEPNSHRCNNGNGTFECGVCRCGPGWLGSQCECSEEDYRPSQQDECSPREGQPVCSQRGECLCGQCVCHSSDFGKITGKYCECDDFSCVRYKGEMCSGHGQCSCGDCLCDSDWTGYYCNCTTRTDTCMSSNGLLCSGRGKCECGSCVCIQPGSYGDTCEKCPTCPDACTFKKECVECKKFDRGALHDENTCNRYCRDEIESVKELKDTGKDAVNCTYKNEDDCVVRFQYYEDSSGKSILYVVEEPECPKGPDILVVLLSVMGAILLIGLAALLIWKLLITIHDRKEFAKFEEERARAKWDTANNPLYKEATSTFTNIT
notes: whole, on cells
Take B1: the binding result was “no binding”.
